From paper PMC4415790
Substitutions are numbered along the chain they refer to. In names and notes the source's numbering stands. These are yes or no findings as the source states them, for the method shown. In cells and extracts the contact can be indirect. Some binding calls cover weakened binding; strength is not graded here. Tags and fused reporters may be left off the sequences shown.

T1: 10xMYC-AGO1 (ARGONAUTE1) (Arabidopsis) (UniProt O04379)
T1 sequence: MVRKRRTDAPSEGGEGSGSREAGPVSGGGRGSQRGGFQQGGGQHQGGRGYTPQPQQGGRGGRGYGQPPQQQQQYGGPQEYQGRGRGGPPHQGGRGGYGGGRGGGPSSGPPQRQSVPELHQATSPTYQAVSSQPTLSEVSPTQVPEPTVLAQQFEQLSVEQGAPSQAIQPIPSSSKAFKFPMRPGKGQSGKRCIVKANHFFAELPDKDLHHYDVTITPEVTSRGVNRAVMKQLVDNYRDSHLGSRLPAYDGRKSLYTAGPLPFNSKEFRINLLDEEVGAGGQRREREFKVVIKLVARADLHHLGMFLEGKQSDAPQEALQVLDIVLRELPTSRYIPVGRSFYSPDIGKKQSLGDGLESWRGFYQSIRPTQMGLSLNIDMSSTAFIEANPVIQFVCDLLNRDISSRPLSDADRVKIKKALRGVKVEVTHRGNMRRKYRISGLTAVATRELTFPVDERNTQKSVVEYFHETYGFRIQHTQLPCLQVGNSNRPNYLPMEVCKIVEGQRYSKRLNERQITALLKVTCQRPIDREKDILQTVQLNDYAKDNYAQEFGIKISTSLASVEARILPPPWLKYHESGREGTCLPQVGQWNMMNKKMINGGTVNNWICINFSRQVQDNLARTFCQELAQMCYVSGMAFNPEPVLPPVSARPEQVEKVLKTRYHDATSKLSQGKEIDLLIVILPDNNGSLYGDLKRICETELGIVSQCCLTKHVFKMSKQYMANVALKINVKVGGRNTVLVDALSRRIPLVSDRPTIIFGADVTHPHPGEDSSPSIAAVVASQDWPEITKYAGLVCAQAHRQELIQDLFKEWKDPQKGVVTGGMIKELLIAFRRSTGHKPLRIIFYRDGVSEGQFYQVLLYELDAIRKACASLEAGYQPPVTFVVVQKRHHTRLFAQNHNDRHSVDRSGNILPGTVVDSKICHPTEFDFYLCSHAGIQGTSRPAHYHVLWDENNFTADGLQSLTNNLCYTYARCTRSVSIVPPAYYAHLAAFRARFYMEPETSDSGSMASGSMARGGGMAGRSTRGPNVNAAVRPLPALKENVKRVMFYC

T2: URT1-GFP (UTP: RNA uridylyltransferase, 35S-URT1-GFP) (Arabidopsis thaliana) (UniProt O64642)
T2 sequence: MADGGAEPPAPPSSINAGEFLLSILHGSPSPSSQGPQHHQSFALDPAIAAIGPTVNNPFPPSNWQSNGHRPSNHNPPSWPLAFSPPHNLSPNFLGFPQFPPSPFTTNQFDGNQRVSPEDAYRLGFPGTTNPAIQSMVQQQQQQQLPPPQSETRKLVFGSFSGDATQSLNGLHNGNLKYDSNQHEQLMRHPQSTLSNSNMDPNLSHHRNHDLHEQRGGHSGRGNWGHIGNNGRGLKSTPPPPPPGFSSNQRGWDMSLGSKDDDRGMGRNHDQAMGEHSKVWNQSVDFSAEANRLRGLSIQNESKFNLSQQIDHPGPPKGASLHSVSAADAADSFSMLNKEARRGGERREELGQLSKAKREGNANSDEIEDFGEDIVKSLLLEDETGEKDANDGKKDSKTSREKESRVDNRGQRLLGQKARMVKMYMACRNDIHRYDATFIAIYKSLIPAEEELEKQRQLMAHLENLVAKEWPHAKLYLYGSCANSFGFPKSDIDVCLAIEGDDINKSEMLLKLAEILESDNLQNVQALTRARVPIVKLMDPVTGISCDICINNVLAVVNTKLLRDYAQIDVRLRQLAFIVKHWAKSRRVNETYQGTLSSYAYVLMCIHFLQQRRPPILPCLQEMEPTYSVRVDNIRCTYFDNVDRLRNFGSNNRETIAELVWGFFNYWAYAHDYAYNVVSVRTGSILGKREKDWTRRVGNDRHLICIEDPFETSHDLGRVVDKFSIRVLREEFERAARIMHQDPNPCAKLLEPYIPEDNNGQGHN

T3: URT1^P618L-GFP (35S-URT1^P618L-GFP) (Arabidopsis thaliana) (UniProt O64642)
T3 sequence: T2 sequence with P618L

B1: URT1-GFP (UTP: RNA uridylyltransferase, 35S-URT1-GFP) (enzyme, UniProt O64642 1-764)
chain: T2 sequence
B2: 10xMYC-AGO1 (ARGONAUTE1) (protein, UniProt O04379 1-1048)
chain: T1 sequence
B3: URT1^P618L-GFP (35S-URT1^P618L-GFP) (enzyme, UniProt O64642 1-764)
chain: T2 sequence with P618L
B4: 10xMYC-DCL3 (aa1-280) (domain or fragment, UniProt Q9LXW7 1-280)
chain: MHSSLEPEKMEEGGGSNSLKRKFSEIDGDQNLDSVSSPMMTDSNGSYELKVYEVAKNRNIIAVLGTGIDKSEITKRLIKAMGSSDTDKRLIIFLAPTVNLVKQQCCEIRALVNLKVEEYFGAKGVDKWTSQRWDEEFSKHDVLVMTPQILLDVLRSAFLKLEMVCLLIIDECHHTTGNHPYAKLMKEFYHESTSKPKIFGLTASAVIRKGIVSSPSNYAAQVSELERLMDSKIFNPEEREGVEKFATTVKEGPILYNPSPSCSLELKEKLETSHLKFDAS

What was measured:
[1] = biological target: T1, 10xMYC-AGO1 (ARGONAUTE1) (Arabidopsis); assay: co-IP; 10xMYC-AGO1 and GFP tagged proteins co-expressed in N. benthamiana leaves with P19; extracts incubated with anti-MYC agarose beads for 4 hrs to overnight; blot with anti-GFP
[2] = biological target: T2, URT1-GFP (UTP: RNA uridylyltransferase, 35S-URT1-GFP) (Arabidopsis thaliana); assay: co-IP; S6D Fig; URT1-GFP with 10xMYC-AGO1 or 10xMYC-DCL3 (aa1-280); with treatment of RNAse A (50 μg/ml); which beads were used is not told
[3] = biological target: T2, URT1-GFP (UTP: RNA uridylyltransferase, 35S-URT1-GFP) (Arabidopsis thaliana); assay: co-IP; 10xMYC-AGO1 and GFP tagged proteins co-expressed in N. benthamiana leaves with P19; extracts incubated with anti-GFP-protein G-agarose beads for 4 hrs to overnight; blot with anti-MYC
[4] = biological target: T3, URT1^P618L-GFP (35S-URT1^P618L-GFP) (Arabidopsis thaliana); assay: as above

Binder	binding [1]	binding [2]	binding [3]	binding [4]
B1	binds	–	–	–
B2	–	binds	binds	binds
B3	binds	–	–	–
B4	–	no binding	–	–
